Data reported in PubChem BioAssay (NCATS).
This list was built around the results that the source calls inconclusive (neither active nor inactive); the mix of calls is not that of the screen. For some of these results: A potency beside an inconclusive call is a rough fit, not a confirmed value. The source made the active and inactive calls. Calls come from the whole dose curve; as a rule, active = well fitted cell-killing curve with a large enough effect; inconclusive = small, poorly fitted or top-dose-only effect, or effect the other way; inactive = flat fitted curve, though single readings scatter.

Experiments:
Experiment in all cases: Primary qHTS to identify gynecologic anti-cancer compounds using libraries of approved drugs and bioactive compounds (AID 1345084); note: nearly all actives have a fitted effect of over 55% in size
Conditions in all cases: Gynecologic cancer cell panel viability, ATPlite luminescence, 48 h; series mostly up to 57.5 µM
OV90 = tested on: OV90
Summary of the method: (§1)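 Measured: luminescence after ATPlite addition (15 min, RT). Exposure: 48 h, 37 C, 5% CO2.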

JEG-3 = tested on: JEG-3
Summary of the method: as §1

PA-1 = tested on: PA-1
Summary of the method: as §1

SKOV3 = tested on: SKOV3
Summary of the method: as §1

Tov-21-G = tested on: Tov-21-G
Summary of the method: as §1

Tov112D = tested on: Tov112D
Summary of the method: as §1
Potency is the fitted concentration of half-maximal effect; tags give direction and shape of the fitted curve.

Question: For `CCOc1ccc(NC(C)=O)cc1`, which Potency (OV90) is on record?
Answer: inconclusive: 7.08 µM [cytotoxic, single point]

Question: How did the Potency (JEG-3) turn out when `CC(=O)OCC(=O)[C@@]12OC(C)(C)O[C@@H]1C[C@H]1[C@@H]3C[C@H](F)C4=CC(=O)C=C[C@]4(C)[C@@]3(F)[C@@H](O)C[C@@]12C` was run?
Answer: inactive

Question: How did the Potency (JEG-3) turn out when `C[C@@]12C(=O)OC(=O)[C@]1(C)C1CCC2O1` was run?
Answer: active: 11.2 µM

Question: What about the Potency (OV90) of the same compound?
Answer: active: 3.16 µM

Question: And the Potency (PA-1)?
Answer: inconclusive: 3.55 µM [cytotoxic, full curve, poor fit]

Question: And the Potency (SKOV3)?
Answer: active: 8.91 µM

Question: What about the Potency (Tov-21-G) of the same compound?
Answer: active: 8.91 µM

Question: What about the Potency (Tov112D) of the same compound?
Answer: active: 14.1 µM

Question: `COc1cc2c(Oc3ccc4[nH]c(C)cc4c3F)ncnc2cc1OCCCN1CCCC1` was tested. Which Potency (JEG-3) did it give?
Answer: inconclusive: 39.8 µM [cytotoxic, single point]

Question: And the Potency (PA-1)?
Answer: inactive

Question: What about the Potency (SKOV3) of the same compound?
Answer: inconclusive: 14.1 µM [cytotoxic, partial curve, poor fit]

Question: What about the Potency (Tov-21-G) of the same compound?
Answer: inconclusive: 17.8 µM [cytotoxic, partial curve]

Question: How did the Potency (JEG-3) turn out when `CSc1ccc2c(c1)N(CCC1CCCCN1C)c1ccccc1S2` (centres undefined) was run?
Answer: inconclusive: 25.1 µM [cytotoxic, single point]

Question: What about the Potency (PA-1) of the same compound?
Answer: inconclusive: 39.8 µM [cytotoxic, single point]

Question: What about the Potency (SKOV3) of the same compound?
Answer: inconclusive: 28.2 µM [cytotoxic, single point]

Question: What about the Potency (Tov-21-G) of the same compound?
Answer: inconclusive: 39.8 µM [cytotoxic, single point]

Question: And the Potency (Tov112D)?
Answer: active: 28.2 µM

Question: `CC(CN(C)C)C(C)(O)Cc1ccc(Cl)cc1` (centres undefined) was tested. Which Potency (OV90) did it give?
Answer: inactive

Question: Which Potency (OV90) does the source give for `CC(CN1c2ccccc2Sc2ccccc21)N(C)C` (centres undefined) here?
Answer: inconclusive: 14.1 µM [cytotoxic, partial curve]
